Source: publication PMC6900781
No constants are given. Whether binding was seen depends on the method and setting. Some binding calls cover weakened binding; strength is not graded here. For some of these results: Tags and fused reporters may be left off the sequences shown. Blank lines part the entries; values can stand above or below the substance they belong to.

Chains of the proteins cited; added tags and fusions are not shown. Lines headed by an entry give the natural chain unless they say otherwise; changes in a name come on top.
UniProt Q9VEN2: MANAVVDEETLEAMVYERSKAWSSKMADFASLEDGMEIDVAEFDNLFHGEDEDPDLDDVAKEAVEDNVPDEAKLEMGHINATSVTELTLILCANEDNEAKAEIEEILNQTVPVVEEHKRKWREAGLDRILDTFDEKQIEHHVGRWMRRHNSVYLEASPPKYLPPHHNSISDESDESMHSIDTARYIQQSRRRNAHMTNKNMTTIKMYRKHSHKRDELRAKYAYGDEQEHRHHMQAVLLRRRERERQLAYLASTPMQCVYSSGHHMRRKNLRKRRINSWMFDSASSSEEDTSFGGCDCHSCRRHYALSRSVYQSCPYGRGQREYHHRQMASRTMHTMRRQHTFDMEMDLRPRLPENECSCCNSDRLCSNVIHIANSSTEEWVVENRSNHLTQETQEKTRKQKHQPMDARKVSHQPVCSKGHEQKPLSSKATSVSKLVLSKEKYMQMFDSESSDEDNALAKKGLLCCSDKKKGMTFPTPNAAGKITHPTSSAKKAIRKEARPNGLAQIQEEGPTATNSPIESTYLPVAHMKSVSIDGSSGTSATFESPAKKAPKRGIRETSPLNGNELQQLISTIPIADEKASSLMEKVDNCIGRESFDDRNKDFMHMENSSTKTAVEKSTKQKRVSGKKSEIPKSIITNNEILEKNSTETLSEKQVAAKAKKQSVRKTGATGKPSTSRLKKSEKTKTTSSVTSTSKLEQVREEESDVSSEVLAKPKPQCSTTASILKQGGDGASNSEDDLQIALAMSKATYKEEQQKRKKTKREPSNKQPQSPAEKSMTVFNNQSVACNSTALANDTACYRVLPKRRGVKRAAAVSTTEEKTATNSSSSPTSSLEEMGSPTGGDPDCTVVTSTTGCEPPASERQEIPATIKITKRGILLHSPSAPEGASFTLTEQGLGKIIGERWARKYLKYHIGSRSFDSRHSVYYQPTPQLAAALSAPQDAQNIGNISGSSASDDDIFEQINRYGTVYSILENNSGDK
UniProt Q9V6Q2: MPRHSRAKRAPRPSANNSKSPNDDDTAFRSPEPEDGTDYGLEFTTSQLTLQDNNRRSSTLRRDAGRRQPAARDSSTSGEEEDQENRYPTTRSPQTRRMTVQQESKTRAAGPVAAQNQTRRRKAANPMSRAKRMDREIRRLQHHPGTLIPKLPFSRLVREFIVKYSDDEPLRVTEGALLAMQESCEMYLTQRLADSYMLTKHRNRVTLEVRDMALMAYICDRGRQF

Legend:
[1] = target: CAL1-GFP-LacI (Drosophila melanogaster) (UniProt Q9VEN2); experiment: LacI/LacO tethering and recruitment assay (immunofluorescence); as a1, but with a third Drosophila centromere protein (CAL1-V5, dCENP-A-HA or -V5, or HA-dCENP-C) co-expressed, as named in the row
[2] = target: CAL1(1-160)-GFP-LacIw (Drosophila melanogaster) (UniProt Q9VEN2); experiment: LacI/LacO tethering and recruitment assay (immunofluorescence); bait fused to the IPTG-sensitive GFP-LacIw tethered to LacO arrays in U2OS cells, TetR marks the arrays; without IPTG
[3] = target: CAL1(1-407)-GFP-LacIw (Drosophila melanogaster) (UniProt Q9VEN2); experiment: as above
[4] = target: dCENP-A-GFP-LacI (Drosophila melanogaster) (UniProt Q9V6Q2); experiment: ChIP-qPCR at LacO DNA; HA-tagged human protein immunoprecipitated with HA antibody from cross-linked U2OS-LacO chromatin in the presence of Drosophila centromere proteins targeted to LacO; qPCR of LacO and alpha-satellite DNA
[5] = target: CAL1-GFP-LacI (Drosophila melanogaster) (UniProt Q9VEN2); experiment: as above
[6] = target: T1, GFP-LacI-dCENP-C (Drosophila melanogaster) (UniProt Q9VHP9); experiment: as above
T1 sequence: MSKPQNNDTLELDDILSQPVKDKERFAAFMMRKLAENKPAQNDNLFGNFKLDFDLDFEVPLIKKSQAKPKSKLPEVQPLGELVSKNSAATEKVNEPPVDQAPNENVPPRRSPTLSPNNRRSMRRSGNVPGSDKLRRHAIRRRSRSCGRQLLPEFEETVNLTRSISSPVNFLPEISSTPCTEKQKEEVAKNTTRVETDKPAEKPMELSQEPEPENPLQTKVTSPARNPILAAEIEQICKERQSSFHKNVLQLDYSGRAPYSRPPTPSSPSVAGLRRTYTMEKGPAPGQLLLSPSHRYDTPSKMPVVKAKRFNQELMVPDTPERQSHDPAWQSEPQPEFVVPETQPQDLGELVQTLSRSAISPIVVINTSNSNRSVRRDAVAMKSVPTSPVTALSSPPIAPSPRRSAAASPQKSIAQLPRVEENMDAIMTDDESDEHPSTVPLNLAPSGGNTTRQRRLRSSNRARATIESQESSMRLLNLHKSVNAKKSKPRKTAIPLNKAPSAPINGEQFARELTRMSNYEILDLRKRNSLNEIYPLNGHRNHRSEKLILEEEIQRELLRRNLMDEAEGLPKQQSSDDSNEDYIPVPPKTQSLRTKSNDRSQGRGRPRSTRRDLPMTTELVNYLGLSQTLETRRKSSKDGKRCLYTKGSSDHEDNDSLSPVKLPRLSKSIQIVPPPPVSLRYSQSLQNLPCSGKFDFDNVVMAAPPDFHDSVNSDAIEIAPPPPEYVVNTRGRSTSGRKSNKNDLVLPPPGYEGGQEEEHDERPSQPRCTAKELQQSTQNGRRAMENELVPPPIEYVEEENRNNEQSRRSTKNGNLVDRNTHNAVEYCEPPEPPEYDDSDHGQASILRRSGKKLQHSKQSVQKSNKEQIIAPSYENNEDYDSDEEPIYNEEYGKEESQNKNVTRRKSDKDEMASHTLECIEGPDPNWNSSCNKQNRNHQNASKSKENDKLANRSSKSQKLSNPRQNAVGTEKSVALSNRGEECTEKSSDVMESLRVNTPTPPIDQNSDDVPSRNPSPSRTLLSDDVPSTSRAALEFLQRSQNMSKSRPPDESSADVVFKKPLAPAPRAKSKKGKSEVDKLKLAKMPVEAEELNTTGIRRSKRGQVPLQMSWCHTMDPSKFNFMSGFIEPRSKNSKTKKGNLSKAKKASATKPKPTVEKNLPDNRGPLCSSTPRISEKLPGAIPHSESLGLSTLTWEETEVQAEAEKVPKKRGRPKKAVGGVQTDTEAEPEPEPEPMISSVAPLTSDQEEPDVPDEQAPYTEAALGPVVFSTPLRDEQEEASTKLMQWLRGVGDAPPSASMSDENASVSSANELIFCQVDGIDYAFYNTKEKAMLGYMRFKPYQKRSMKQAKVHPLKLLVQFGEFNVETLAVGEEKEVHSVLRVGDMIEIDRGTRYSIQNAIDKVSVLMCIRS

[7] = target: dCENP-A-GFP-LacI (Drosophila melanogaster) (UniProt Q9V6Q2); experiment: LacI/LacO tethering and recruitment assay (immunofluorescence); bait fused to GFP-LacI tethered to chromosomal LacO arrays in human U2OS cells; HA- or V5-tagged prey transiently co-expressed; IF 48 h after transfection, prey intensity at the LacO spot or % of cells; no third Drosophila centromere protein co-expressed
[8] = target: CAL1-GFP-LacI (Drosophila melanogaster) (UniProt Q9VEN2); experiment: as above
[9] = target: T2, GFP-LacI-dCENP-C(1009-1411) (Drosophila melanogaster) (UniProt Q9VHP9); experiment: as above
T2 sequence: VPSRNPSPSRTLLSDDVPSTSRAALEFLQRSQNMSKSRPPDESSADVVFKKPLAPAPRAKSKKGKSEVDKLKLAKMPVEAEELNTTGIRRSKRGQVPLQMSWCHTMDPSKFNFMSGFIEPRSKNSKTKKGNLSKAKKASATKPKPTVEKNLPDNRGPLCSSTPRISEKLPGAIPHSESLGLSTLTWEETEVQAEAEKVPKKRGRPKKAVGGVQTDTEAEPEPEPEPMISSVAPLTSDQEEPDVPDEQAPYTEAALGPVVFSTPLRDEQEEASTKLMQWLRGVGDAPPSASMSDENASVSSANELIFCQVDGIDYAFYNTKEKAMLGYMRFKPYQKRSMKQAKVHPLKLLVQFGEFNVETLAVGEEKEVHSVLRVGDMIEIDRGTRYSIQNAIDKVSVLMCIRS

[10] = target: dCENP-A-GFP-LacI (Drosophila melanogaster) (UniProt Q9V6Q2); experiment: LacI/LacO tethering and recruitment assay (immunofluorescence); as a1, but with a third Drosophila centromere protein (CAL1-V5, dCENP-A-HA or -V5, or HA-dCENP-C) co-expressed, as named in the row
[11] = target: dH3^L1α2-GFP-LacI (Drosophila melanogaster) (UniProt P02299+Q9V6Q2); experiment: LacI/LacO tethering and recruitment assay (immunofluorescence); bait fused to GFP-LacI tethered to chromosomal LacO arrays in human U2OS cells; HA- or V5-tagged prey transiently co-expressed; IF 48 h after transfection, prey intensity at the LacO spot or % of cells; no third Drosophila centromere protein co-expressed
[12] = target: dH3^L1α2+C-GFP-LacI (Drosophila melanogaster) (UniProt P02299+Q9V6Q2); experiment: as above
[13] = target: dCENP-A-GFP-LacI (Drosophila melanogaster) (UniProt Q9V6Q2); experiment: LacI/LacO tethering and recruitment assay (immunofluorescence); bait fused to GFP-LacI tethered to LacO arrays in U2OS cells; endogenous human centromere proteins detected at LacO by IF
[14] = target: CAL1-GFP-LacI (Drosophila melanogaster) (UniProt Q9VEN2); experiment: as above
[15] = target: T1, GFP-LacI-dCENP-C (Drosophila melanogaster); experiment: as above
[16] = target: T1, GFP-LacI-dCENP-C (Drosophila melanogaster); experiment: LacI/LacO tethering and recruitment assay (immunofluorescence); bait fused to GFP-LacI tethered to chromosomal LacO arrays in human U2OS cells; HA- or V5-tagged prey transiently co-expressed; IF 48 h after transfection, prey intensity at the LacO spot or % of cells; no third Drosophila centromere protein co-expressed
[17] = target: dCENP-A-GFP-LacIw (Drosophila melanogaster) (UniProt Q9V6Q2); experiment: LacI/LacO tethering and recruitment assay (immunofluorescence); bait fused to the IPTG-sensitive GFP-LacIw tethered to LacO arrays in U2OS cells, TetR marks the arrays; without IPTG
[18] = target: dCENP-A-GFP-LacIw (Drosophila melanogaster) (UniProt Q9V6Q2); experiment: condition: only after IPTG (15 mM, 1 h), when only the nucleosomal pool of dCENP-A-GFP-LacIw is left at the LacO arrays; LacI/LacO tethering and recruitment assay (immunofluorescence); as a4, after 15 mM IPTG for 1 h 48 h after transfection: the LacIw tether is released and only chromatin-assembled (nucleosomal) dCENP-A stays at LacO

binding [1]: binds
Substance: dCENP-A-V5 (from UniProt Q9V6Q2 1-225)

binding [2]: binds
binding [3]: binds
Substance: dCENP-A (co-expressed in the IPTG experiments, no tag named) (from UniProt Q9V6Q2 1-225)

binding [4]: no binding
binding [5]: no binding
binding [6]: no binding
Substance: HA-tagged hCENP-A (from UniProt P49450 1-140)

binding [7]: binds
binding [8]: no binding
Substance: CAL1(1-160)-HA (from UniProt Q9VEN2 1-160) (domain or fragment)

binding [8]: binds
binding [9]: no binding
Substance: CAL1(1-407)-HA (from UniProt Q9VEN2 1-407) (domain or fragment)

binding [8]: no binding
Substance: CAL1(392-722)-HA (from UniProt Q9VEN2 392-722) (domain or fragment)

binding [10]: binds
binding [11]: binds weakly
binding [12]: binds
Substance: CAL1-V5 (from UniProt Q9VEN2 1-979)

binding [4]: no binding
binding [5]: no binding
binding [6]: no binding
Substance: HA-tagged HJURP (from UniProt Q8NCD3 1-748)

binding [13]: no binding
binding [14]: no binding
binding [15]: no binding
Substance: hCENP-A (endogenous) (from UniProt P49450 1-140)

binding [8]: no binding
binding [9]: binds
binding [16]: binds
Substance: CAL1(699-979)-HA (from UniProt Q9VEN2 699-979) (domain or fragment)

binding [8]: binds
Substance: CAL1(101-407)-HA (from UniProt Q9VEN2 101-407) (domain or fragment)

binding [17]: binds
binding [9]: binds
binding [16]: binds
binding [18]: no binding
Substance: CAL1-HA (from UniProt Q9VEN2 1-979)
